# Among all 48,000 compounds or so, about 1,200 (2.5%) were called active. Not shown: some 2% with an inconclusive outcome.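 The calls were made as follows: active = activation of at least 60% and not above a set upper limit (about 1 call in 100 departs from these limits); inconclusive = activation of 40% to 60%, or above that upper limit; inactive = activation under 40%.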 The list shows a part of the results.
# Biological target: Probable G-protein coupled receptor 32 (Homo sapiens) (UniProt O75388)
# Chain of UniProt O75388 (O75388 whole entry, looked up): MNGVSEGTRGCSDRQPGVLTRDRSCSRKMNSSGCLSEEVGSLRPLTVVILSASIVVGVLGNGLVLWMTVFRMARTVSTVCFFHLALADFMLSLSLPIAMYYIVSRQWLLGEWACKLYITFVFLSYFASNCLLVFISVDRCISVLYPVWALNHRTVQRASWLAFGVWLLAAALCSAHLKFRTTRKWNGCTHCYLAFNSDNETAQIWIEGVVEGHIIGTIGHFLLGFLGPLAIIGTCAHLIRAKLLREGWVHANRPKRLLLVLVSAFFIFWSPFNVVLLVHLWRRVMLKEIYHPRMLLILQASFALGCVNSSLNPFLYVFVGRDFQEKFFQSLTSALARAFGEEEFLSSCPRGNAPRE
# Assay: qHTS for Agonists of Human Resolvin D1 Receptor DRV1; also: 0% is about no effect
# Conditions: CHO-K1 GPR32 beta-arrestin PathHunter luminescence, 90 min; at 76.9 µM; active compounds read high; zero percent set by DMSO-only wells
# Summary of the method: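 Step 1: seed CHO-K1 GPR32 beta-arrestin cells, 2,500/well, overnight at 37 °C. Step 2: add compounds, 90 min at 37 °C. Step 3: detection reagent, 1 h ambient, then luminescence.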
row,SMILES,activation
1,CCOc1ccccc1NC(=O)C1CCN(S(=O)(=O)c2ccc3[nH]c(=O)ccc3c2)CC1,inactive: 9.11%
2,COc1ccc(-n2c(/C=C/c3cccc(C(F)(F)F)c3)nc3ccccc3c2=O)cc1Cl,inactive: -5.34%
3,CCOc1ccc(CCNC(=O)C2CCN(Cc3nc(-c4ccc(OC)c(OC)c4)oc3C)CC2)cc1OCC,inactive: 32.1%
4,C[N+](C)(C)CCOP(=O)(O)OP(=O)([O-])OC[C@H]1O[C@@H](n2ccc(N)nc2=O)[C@H](O)[C@@H]1O,inactive: 3.66%
5,Cn1cc(S(=O)(=O)N2CCCCCC2)cc1C(=O)N1CCN(c2cccc(C(F)(F)F)c2)CC1,inactive: 11.2%
6,CCC(=O)N1CCc2cc(Br)cc(S(=O)(=O)N3CCCC(C(=O)NCc4ccc(F)cc4)C3)c21 (configuration not stated),inactive: -0.352%
7,Cc1ccc(S(=O)(=O)N2CCN(Cc3cc(Br)ccc3O)CC2)cc1,inactive: -1.34%
8,Cc1ccn2c(=O)cc(COc3ccc(NC(=O)COc4ccccc4)cc3)nc2c1,inactive: 4.13%
9,N#Cc1ccccc1NC(=O)C(=O)NCCc1csc(-c2ccc(C(F)(F)F)cc2)n1,inactive: -2.05%
10,CCc1ccc(NC(=O)COC(=O)CCCC2=NS(=O)(=O)c3ccccc3N2)cc1,active: 64.2%
11,O=C1CSC2(C(=O)N(Cc3ccccc3)c3ccccc32)N1c1cccc(F)c1 (configuration not stated),inactive: -27.9%
12,COc1ccc(-c2nnc(SCC(=O)Nc3cc(OC)ccc3OC)nc2-c2ccc(OC)cc2)cc1,inactive: -37.5%
13,Cc1ccc2nc(COc3ccccc3NC(=O)c3ccccc3C)cc(=O)n2c1,inactive: -1.01%
14,COc1ccc(OC)c(NC(=O)c2ccc3c(SCC(=O)O)c4c(nc3c2)CCCC4)c1,inactive: -4.62%
15,COc1cc2c(cc1OC)C1CC(=O)C(CC(C)C)CN1CC2 (configuration not stated),inactive: -18.5%
16,Cc1cccc(CCNC(=O)c2ccc3c(c2)nc2n3CCC(C)C2)c1 (configuration not stated),inactive: -17.8%
17,COc1ccc(CCn2c(=O)c3cccnc3n(CC(=O)Nc3c(C)cccc3C)c2=O)cc1OC,inactive: -8.72%
18,CCc1cccc(C)c1NC(=O)Cn1c(=O)n(-c2ccc(C)cc2)c(=O)c2c1cnn2C,inactive: -18.1%
19,O=S(=O)(c1ccc(Cl)cc1)c1nc(-c2cccc(Br)c2)oc1NCc1ccccc1,inactive: 17.5%
20,O=C(c1ccco1)N1CCN(c2nc3c(F)cc(F)cc3s2)CC1,inactive: 13.4%
21,Nc1ccc(S(=O)(=O)NC(=O)c2ccccc2)cc1,inactive: 3.79%
22,Cc1cccc(-c2noc(-c3ccc(NCc4ccco4)c([N+](=O)[O-])c3)n2)c1,inactive: 25.9%
23,COc1cccc(-c2ccc(-c3noc(-c4ccccc4Br)n3)c(OC)n2)c1,inactive: 1.68%
24,CCCC[C@@]1(C2CCCC2)Cc2cc(OCC(=O)O)c(Cl)c(Cl)c2C1=O,inactive: -2.04%
25,CCC(=O)N1c2ccccc2CC1C(=O)NCc1cccc(OC)c1OC (configuration not stated),inactive: 18%
26,CCOc1ccc(-c2cn3c(n2)sc2cc(C(=O)NCCC4=CCCCC4)ccc23)cc1,inactive: -17.1%

row,SMILES,activation
1,CCOc1ccc(NC(=O)CSc2nnc(CC)c(CC)n2)cc1,inactive: -4.16%
2,CCN(CC)CCNC(=O)C1CCCN(c2nnc(C)c3c(C)n(-c4ccc(Cl)cc4)nc23)C1 (configuration not stated),inactive: -4.39%
3,COc1ccccc1CNC(=O)c1ccc(NC(=O)N2CC(C)Sc3ccccc32)cc1 (configuration not stated),inactive: -19.1%
4,Cc1cccc(C)c1NC(=O)C1CCCN(S(=O)(=O)c2c(C)noc2/C=C/N(C)C)C1 (configuration not stated),inactive: -23.2%
5,COc1ccc(S(=O)(=O)NCC(c2ccco2)S(=O)(=O)c2ccc(C)cc2)cc1C (configuration not stated),inactive: -23.1%
6,CCCCCCCCCCCCCCCC(=O)NCC(COP(=O)([O-])OCC[N+](C)(C)C)OCC (configuration not stated),inactive: 7.91%
7,Cc1cccc(OCC(=O)Nc2ccc(C(=O)OCc3cc(=O)n4nc(C5CC5)sc4n3)cc2)c1,inactive: -5.52%
8,COC(=O)c1ccc(NC(=O)CSc2ccc(-c3cccs3)nn2)cc1,inactive: 2.12%
9,Cc1ccc(-c2noc(-c3cccnc3NCc3ccc(Cl)cc3)n2)cc1,inactive: 4.61%
10,Cc1ccc(-c2nc3scc(CCNS(=O)(=O)c4ccc(C)c(C)c4)n3n2)cc1,inactive: 7.42%
11,CCOC(=O)c1cc(-c2ccc(C)cc2)n(CCC(=O)NCc2ccccc2)c1C,inactive: -19.5%
12,CCCc1ncc(C[n+]2ccccc2C)c(N)n1,inactive: -5.43%
13,COc1ccc2cc(S(=O)(=O)c3ccccc3F)c(=O)oc2c1,inactive: -6.46%
14,CCc1ccc(NC(=O)C(Cc2ccccc2)NS(=O)(=O)c2ccc3c(c2)CCN3C(C)=O)cc1 (configuration not stated),inactive: -6.84%
15,Cc1cc(C)c(NC(=O)c2cc(CN3CCOCC3)on2)c(C)c1,inactive: -1.85%
16,CCOc1ccc(Sc2cc(C(=O)NCCCOC)c3ccccc3n2)cc1,inactive: -4.36%
17,C#CCOc1ccc(C2C(C(=O)OC)=C(C)NC3=C2C(=O)c2ccccc23)cc1OCC (configuration not stated),inactive: -40.9%
18,COc1ccc(N2CC(NC(=O)c3cccs3)CC2=O)cc1OC (configuration not stated),inactive: 0.998%
19,O=S(=O)(NCCc1csc(-c2ccc(F)cc2)n1)c1ccc(F)cc1F,inactive: -3.31%
20,O=C(Nc1ccc(F)cc1)c1ccc(-n2cnnc2)cc1,inactive: 15.1%
21,CCc1ccc(-c2[nH]c3c(c2-c2c(-n4cccc4)n(C)c(=O)[nH]c2=O)c(=O)[nH]c(=O)n3C)cc1,inactive: -1.28%
22,O=C1NC(=O)C(c2ccccc2[N+](=O)[O-])=C1Nc1ccc(O)c(Cl)c1,inactive: -9.28%
23,CC(=O)Nc1ccc(NS(=O)(=O)c2ccc3c(c2)CCCN3C(C)=O)cc1,inactive: -1.34%
24,O=C(Nc1nnc(S(=O)(=O)N2CCCCC2)s1)c1ccc(Cl)cc1,inactive: 20.1%
25,COc1ccc(-n2ncc(C(=O)Nc3ccc(C)cc3Cl)c2C2CCN(C(=O)OC(C)(C)C)CC2)cc1,inactive: -26.6%
26,CCn1cc(C(=O)NCCCN(CC(C)C)CC(C)C)c(=O)c2cc(S(=O)(=O)N3CCc4ccccc4C3)ccc21,inactive: -0.578%

# Source: PubChem BioAssay AID1346428 (National Center for Advancing Translational Sciences (NCATS), 2018)
